Reference: PubChem BioAssay AID1466 (National Center for Advancing Translational Sciences (NCATS), 2008)
Among all 200,000 compounds or so, about 10 (0.005%) were called active. The shares of active, inactive and inconclusive entries below differ from those in the screen. Calls come from the whole dose curve; as a rule, active = well fitted inhibition curve with a large enough effect; inconclusive = small, poorly fitted or top-dose-only effect, or effect the other way, or another doubt; inactive = no such curve, though single readings can be large or run the other way. Potencies of inconclusive entries are doubtful fits and often do not repeat.

The compounds below were run against Lysosomal alpha-glucosidase (Homo sapiens) (UniProt P10253) (assay: qHTS Assay for Inhibitors of Human alpha-Glucosidase as a Potential Chaperone Treatment of Pompe Disease). Conditions: purified human GAA, 4-MU-alpha-glucoside fluorescence; activity change, negative = inhibition: at 76.9 µM (top of the series) unless noted.
Procedure, shortened: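 AC50 values come from Hill fits of compound titrations (up to 77 uM) against 4 nM human enzyme. Substrate 4-methylumbelliferyl-alpha-D-pyranoside at 400 uM, pH 5.0 citrate buffer, 20 min room temperature; fluorescence Ex 365/Em 440 after alkaline stop.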
Potency is the fitted concentration of half-maximal effect; tags give direction and shape of the fitted curve.
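Throughout, for activity change, negative = inhibition: plate controls were uninhibited enzyme wells for no effect and no-enzyme background for full effect.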

Activity change, negative = inhibition, inactive:
COc1ccccc1N1CCN(/N=C/c2cc(OC)c(O)c(OC)c2)CC1 -12.1%
c1ccc(CNc2nc(-c3cccs3)nc3ccccc23)cc1 -2.98%
CN(C(=O)Nc1ccccc1)C1CCS(=O)(=O)C1 (stereo not given) -1.52%
Cc1[nH][nH]c(=O)c1C(c1c(C)[nH][nH]c1=O)c1cn(Cc2ccc(F)cc2)c2ccccc12 -2.37%
Cc1ccc2oc3nc(C)c(C(=O)O)cc3c(=O)c2c1 11.9%
COC(=O)Cc1ccc(O)c(N)c1 4.3%
COc1ccc(CCNc2nc(N3CCCCC3)nc(N3CCCCC3)n2)cc1OC -10%
Nc1nc(N2CCN(c3ccc(Cl)cc3)CC2)n[nH]1 10.3%

Activity change, negative = inhibition, inconclusive:
C(=N\Nc1ccc2ccccc2n1)/c1ccc2c(c1)OCO2 15.2% [activator]
Cc1ccc(NC(=O)/C=C/c2ccc3c(c2)OCO3)nc1 -16.2% [inhibitor]
Cc1sc2nc(CN3CCOCC3)nc(N3CCC(C(N)=O)CC3)c2c1C -18.6% [inhibitor]
Cc1c(N)cc(C(=O)N2CCOCC2)cc1[N+](=O)[O-] -15.2% [inhibitor]
COc1ccc(NC(=O)Nc2nnc(CC(=O)NCc3ccccc3)s2)cc1 16.6% [activator]
Cc1ccc(/C=C/C(=O)NCc2ccc(S(N)(=O)=O)cc2)o1 16.5% [activator]
CN1CCN(/N=C/c2ccc(-c3ccc([N+](=O)[O-])cc3)o2)CC1 6.49% [activator]
CCn1c(COc2cccc3cccnc23)nnc1SC(F)F 18.2% [activator]
CSc1nc2c(cc1C#N)C(=O)CC(C)(C)C2 12.3% [activator]
Nc1nc(CSc2nc3ccccc3s2)nc(N2CCOCC2)n1 17% [activator]
COC(=O)C1CCN(c2cc(=O)n(C3CCCCC3)c(=O)[nH]2)CC1 15.7% [activator]
COC(=O)c1[nH]c(C)c(/C(O)=C2\C(=O)C(=O)N(CCN(C)C)C2c2cc(OC)ccc2OC)c1C (stereo not given) 18.9% [activator]
CCN(CC)C(=O)CSc1nsc(SCC(=O)N(CC)CC)c1C#N -15.9% [inhibitor]
CCOC(=O)c1cc2c(nc1N)CC(C)(C)OC2 15.1% [activator]
Cc1ccc2c(c1)C(O)(CC(=O)c1ccc(C)s1)C(=O)N2 (stereo not given) 10.1% [activator]

Potency, inconclusive:
COCc1ccc([C@@H]2C[C@H]3CN(Cc4cccc(Cl)c4)C(=O)[C@]34CCCN24)o1 35.5 µM [inhibitor, partial curve]
Cc1ccc(OCC(=O)N2CCN(S(=O)(=O)c3ccccc3[N+](=O)[O-])CC2)cc1 28.2 µM [activator, partial curve]
O=C(CSc1nnc(SCc2ccccc2Cl)s1)N/N=C/c1c[nH]c2ccccc12 50.1 µM [inhibitor, single point]
O=C(NCCCN1CCCC1)c1ccc(Cn2c(=S)[nH]c3ccc(Br)cc3c2=O)cc1 10 µM [inhibitor, full curve, poor fit]
CC(=O)N1CCN(c2ccc(NCc3ccc(C(C)C)cc3)cc2)CC1 50.1 µM [inhibitor, single point]
Cc1cc(OCCCCCNCCO)ccc1Cl 0.708 µM [inhibitor, full curve, poor fit]
CC(=O)NC(CCS(C)(=O)=O)C(=O)Nc1ccc2c(c1)OCO2 (stereo not given) 50.1 µM [inhibitor, single point]
CCOc1cc(/C=C(\C#N)C(=O)NCC2CCCO2)ccc1O (stereo not given) 50.1 µM [inhibitor, single point]
Cc1sc2ncnc(NCC(c3ccco3)N(C)C)c2c1C (stereo not given) 28.2 µM [inhibitor, single point]
CC(OC(=O)CCCCCN=C1NS(=O)(=O)c2ccccc21)C(=O)Nc1cc(Cl)cc(Cl)c1 (stereo not given) 56.2 µM [inhibitor, single point]
COc1ccc(C(NC(=O)C(C)C)c2c(O)ccc3ccccc23)cc1OC (stereo not given) 50.1 µM [activator, single point]
CCn1nc(C)c(Br)c1Nc1ccc(Br)cc1 20 µM [inhibitor, partial curve]
Cc1cc(C)c(S(=O)(=O)N2CCN(C(=O)c3cccs3)CC2)c(C)c1 14.1 µM [inhibitor, partial curve, poor fit]
CC12CC3CC(C)(C1)CC(C(=O)NC(=S)N1CCCCC1)(C3)C2 39.8 µM [inhibitor, single point]
Cc1nn(Cc2ccc(Cl)c(Cl)c2)c(C)c1NC(=O)c1noc2c1CCCCC2 50.1 µM [inhibitor, single point]
CCc1nnc(NC(=O)NC(C)(C)C)s1 50.1 µM [inhibitor, partial curve, poor fit]
Cc1ccc(OCCn2cc(/C=C3\C(=O)NN(c4ccccc4)C3=O)c3ccccc32)cc1 50.1 µM [inhibitor, single point]
CC(NC(=O)CSc1ncccn1)c1ccccc1 (stereo not given) 31.6 µM [inhibitor, single point]
CCCCn1c(=O)c2c(c3ccccc31)OCC(=O)N2 0.178 µM [inhibitor, full curve, poor fit]
Cc1sc2ncnc(OCC(=O)N3CCN(S(=O)(=O)c4ccc(Cl)cc4)CC3)c2c1C 39.8 µM [inhibitor, partial curve, poor fit]
NC(=O)c1sc2nc(N3CCCCC3)c3c(c2c1N)CCCC3 20 µM [activator, single point]
Cc1cc(C(=O)NCc2ccco2)c2cc(F)ccc2n1 1.78 µM [inhibitor, full curve]
